# Assay results: PMC4336329 (PLoS ONE, 2015)
# Among all 310,000 compounds or so, about 2,200 (0.71%) showed an effect of 50% or more. Effects have a minus sign here. The list shows a part of the results.
# Target: human ether-à-go-go-related gene (hERG) potassium channel (human, UniProt Q12809)
# Experiment: primary screen, population patch clamp on CHO cells stably expressing hERG
# Sequence of human ether-à-go-go-related gene (hERG) potassium channel (Q12809 whole entry, looked up): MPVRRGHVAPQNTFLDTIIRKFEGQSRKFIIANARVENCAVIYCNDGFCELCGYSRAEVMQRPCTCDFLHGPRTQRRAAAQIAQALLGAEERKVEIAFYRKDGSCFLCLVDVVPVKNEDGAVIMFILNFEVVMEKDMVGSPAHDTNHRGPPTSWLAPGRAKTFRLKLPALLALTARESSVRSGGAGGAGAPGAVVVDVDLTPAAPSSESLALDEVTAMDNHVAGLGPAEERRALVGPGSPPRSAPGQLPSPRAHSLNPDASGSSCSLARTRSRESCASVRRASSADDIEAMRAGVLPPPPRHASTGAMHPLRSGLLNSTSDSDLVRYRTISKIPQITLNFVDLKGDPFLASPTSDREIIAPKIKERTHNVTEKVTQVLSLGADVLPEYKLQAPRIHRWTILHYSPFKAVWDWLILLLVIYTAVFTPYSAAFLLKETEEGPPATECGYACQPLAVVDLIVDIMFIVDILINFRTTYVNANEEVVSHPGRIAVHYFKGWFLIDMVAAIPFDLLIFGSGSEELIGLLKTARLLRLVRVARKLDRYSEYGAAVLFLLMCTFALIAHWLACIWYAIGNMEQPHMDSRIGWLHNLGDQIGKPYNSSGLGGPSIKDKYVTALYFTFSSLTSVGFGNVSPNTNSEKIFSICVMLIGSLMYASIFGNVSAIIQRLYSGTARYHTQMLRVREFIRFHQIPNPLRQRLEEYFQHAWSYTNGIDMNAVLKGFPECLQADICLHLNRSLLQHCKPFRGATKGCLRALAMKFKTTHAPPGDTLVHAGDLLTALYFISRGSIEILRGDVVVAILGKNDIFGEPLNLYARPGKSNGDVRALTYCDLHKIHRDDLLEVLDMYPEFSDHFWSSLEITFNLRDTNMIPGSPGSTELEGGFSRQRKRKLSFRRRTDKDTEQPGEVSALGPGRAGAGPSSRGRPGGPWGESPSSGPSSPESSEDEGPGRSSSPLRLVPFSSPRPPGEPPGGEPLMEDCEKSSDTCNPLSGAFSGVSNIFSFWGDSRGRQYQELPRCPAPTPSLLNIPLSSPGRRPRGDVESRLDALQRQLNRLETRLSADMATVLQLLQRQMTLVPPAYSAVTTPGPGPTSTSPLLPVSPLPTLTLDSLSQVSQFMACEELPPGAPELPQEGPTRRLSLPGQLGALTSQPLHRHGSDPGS
row,Compound,"hERG current change (%, negative = inhibition) at 1uM"
1,Cc1cccc(C#Cc2ccccc2)n1.Cl,4.55%
2,Cc1c(C(=O)NCc2cccnc2)oc2ccc(S(=O)(=O)N3CCCC(C)C3)cc12 (stereo not shown),6.31%
3,COCCSc1ccccc1C(=O)NCc1cccnc1,10.6%
4,Cc1cc(C)n(CCO)c(=O)n1.Cl,25.3%
5,CC(C)c1ccc(NC(=O)CSc2nc(=O)[nH]c3c2CCCC3)cc1,4.46%
6,Cc1cccc(NC(=O)c2ccc(NCC3CCCO3)c([N+](=O)[O-])c2)c1 (stereo not shown),5.6%
7,O=C(C1CCCN(S(=O)(=O)c2cccc3nsnc23)C1)N1CCc2ccccc21 (stereo not shown),0.421%
8,COc1cc(OC)c([N+](=O)[O-])cc1/C=N/NC(=O)c1ccncc1,0.0289%
9,COc1cc(O)c(C(CCN2CCOCC2)c2ccc(N(C)C)cc2)c(OC)c1 (stereo not shown),6.59%
10,O=C(c1cc(Cl)ccc1O)N1CCN(S(=O)(=O)c2cccs2)CC1,18.9%
11,COc1ccccc1C(=O)C1CCCN(Cc2cccc(OCCO)c2)C1 (stereo not shown),2.04%
12,CC(C)N(CCCNC(=O)C1CCC(CNS(=O)(=O)c2ccccc2)CC1)Cc1ccccc1 (stereo not shown),3.8%
13,COc1ccc(OC)c(NC(=O)c2cccnc2Sc2cc(C)ccc2C)c1,6.65%
14,Cc1c(-c2ccccc2)oc2c(C(=O)N3CCN(c4ccc([N+](=O)[O-])cc4)CC3)cccc2c1=O,-20.1%
15,CCCC(c1nnnn1CS(=O)(=O)c1ccc(C)cc1)N1CCN(c2ccc(F)cc2)CC1 (stereo not shown),2.29%
16,Cc1ccccc1N1CCN(C2CCCN(C(=O)Cc3c(C)noc3C)C2)CC1 (stereo not shown),3.96%
17,CCOc1ccc(/C=C/C(=O)OCC(=O)Nc2cccc(S(=O)(=O)N3CCCC3)c2)cc1,-3.07%
18,CCOC(=O)C1=C(c2cccc(F)c2)NC(=S)NC1C (stereo not shown),-8.98%
19,CCOC(=O)c1sc2nc(NC(=O)COc3ccccc3)sc2c1C,18.4%
20,Cc1onc(-c2c(Cl)cccc2Cl)c1CO/N=C(\C#N)c1c(Cl)cccc1Cl,11.4%
21,O=C(NCc1cccnc1)Nc1ccc(Cl)cc1,-18.3%
22,Cn1cc(CC(=O)NCCN2CCOCC2)c2ccccc21,11.7%

row,Compound,"hERG current change (%, negative = inhibition) at 1uM"
1,CC(C)Cn1c(CN2CCN(c3ccccc3F)CC2)nc2c1c(=O)[nH]c(=O)n2C,10.1%
2,COc1cc(NC(=O)CCc2nnc3ccc(N4CCC(C)CC4)nn23)cc(OC)c1,16.4%
3,CNC(=S)Nc1ccc(C23CC4CC(CC(C4)C2)C3)cc1,19.9%
4,CCOC(=O)c1ccc(NC(=O)Cn2nnc(-c3ccc(F)cc3)n2)cc1,7.91%
5,COc1cccc(CNC(=O)C2CCCN(S(=O)(=O)N3CC(C)CC(C)C3)C2)c1 (stereo not shown),7.38%
6,O=C(CCC(=O)c1ccc(Oc2ccccc2)cc1)Nc1cccc(Cl)c1,6.65%
7,O=C(NCCC(=O)N1CCN(S(=O)(=O)c2ccccc2)CC1)c1ccc(Br)cc1,14.5%
8,N#CCCNS(=O)(=O)c1ccc(C(=O)OCC2CCCCC2)cc1,15.9%
9,CCCCN(CCCC)C(=O)C1(P(=O)(c2ccccc2)c2ccccc2)CCC1,7.73%
10,CCN1CCCC1CNC(=O)CN(C)S(=O)(=O)c1ccc(Cl)cc1 (stereo not shown),-0.769%
11,Cc1ccc(OCC(=O)Oc2ccc(C(C)C)cc2)cc1,13.6%
12,Cc1ccc2nc(-c3ccc(NS(=O)(=O)c4ccc(F)cc4)cc3)sc2c1,4.76%
13,CC1CC(C)CN(C(=O)COC(=O)c2ccc([N+](=O)[O-])o2)C1 (stereo not shown),3.76%
14,OCCCNc1ncnc2c1cnn2-c1ccc(Cl)cc1,20.9%
15,COc1ccc(-n2nnc3c(=O)n(CC(=O)N4CCCC4)cnc32)cc1,4.15%
16,COc1cc(C[C@@H]2C(=O)OC[C@H]2Cc2ccc(OC)c(OC)c2)ccc1O,10.7%
17,CSc1nc(C)c(CCOCc2ccc(F)cc2)c(=O)[nH]1,8.26%
18,Cc1ccc2nc(SCC(=O)Nc3cccc(S(=O)(=O)N(C)C)c3)[nH]c2c1,7.67%
19,CSc1nnc(NC(=O)c2nc(S(=O)(=O)Cc3ccc(C)cc3)ncc2Cl)s1,19.3%
20,C=CCNC(=S)NNC(=O)c1ccncc1,6.98%
21,Cc1cc(Cl)ccc1OCC(=O)OC(C)C(=O)N(C)C (stereo not shown),12.7%
